US9249147B2, “Tyrosine kinase inhibitors” (CHEMBRIDGE CORPORATION, priority 2008, dated 2016)
Values joined by “and” are separate entries in the source; they are usually repeats but may differ in a detail not shown here. Identical values can stand only once.

Key:
HepG2 = assay: Cytotoxicity panel in HepG2 (Cerep ADMET study 13170); type: cell-based, human; conditions: for Intracellular Free Calcium % Effect (relative to controls), Mean: % increase
Protocol: In addition to the above proliferation inhibition experiments, compound (II) was tested for cytotoxicity at Cerep (ADMET study 13170) with human hepatocellular carcinoma cell line HepG2. Several cellular parameters, such as nuclear size, mitochondrial membrane potential, intracellular free calcium, membrane permeability and cell numbers were measured during this study to evaluate cytotoxicity at 0.5, 5 and 20 μM compound concentrations.
Raw data will be expressed as % of effect (either inhibition or increase) relative to the untreated control cells. The data will also be normalized using the reference compound (cerivastatin), whose maximum effect will be considered “100% effect.” The reference compound will also be used to define the top and bottom of the dose-response curve, if one is calculated. […] The results include the following end points:
Nuclear Size: expressed as % inhibition relative to control values.
Mitochondrial Membrance Potential: expressed as % inhibition relative to control values.
Intracellular Free Calcium: expressed as % increase relative to control values.
Membrance permeability: expressed as % increase relative to control values.
Cell Numbers: expressed as % inhibition relative to control values.

hERG = hERG (Homo sapiens, UniProt Q12809); assay: hERG Qpatch 16 automated whole-cell patch clamp in CHO-K1 (Cerep hERG Study 13292); type: cell-based; conditions: for % Inhibition of Tail current (mean): CHO-K1, automated patch clamp
Chain of UniProt Q12809 (Q12809 whole entry): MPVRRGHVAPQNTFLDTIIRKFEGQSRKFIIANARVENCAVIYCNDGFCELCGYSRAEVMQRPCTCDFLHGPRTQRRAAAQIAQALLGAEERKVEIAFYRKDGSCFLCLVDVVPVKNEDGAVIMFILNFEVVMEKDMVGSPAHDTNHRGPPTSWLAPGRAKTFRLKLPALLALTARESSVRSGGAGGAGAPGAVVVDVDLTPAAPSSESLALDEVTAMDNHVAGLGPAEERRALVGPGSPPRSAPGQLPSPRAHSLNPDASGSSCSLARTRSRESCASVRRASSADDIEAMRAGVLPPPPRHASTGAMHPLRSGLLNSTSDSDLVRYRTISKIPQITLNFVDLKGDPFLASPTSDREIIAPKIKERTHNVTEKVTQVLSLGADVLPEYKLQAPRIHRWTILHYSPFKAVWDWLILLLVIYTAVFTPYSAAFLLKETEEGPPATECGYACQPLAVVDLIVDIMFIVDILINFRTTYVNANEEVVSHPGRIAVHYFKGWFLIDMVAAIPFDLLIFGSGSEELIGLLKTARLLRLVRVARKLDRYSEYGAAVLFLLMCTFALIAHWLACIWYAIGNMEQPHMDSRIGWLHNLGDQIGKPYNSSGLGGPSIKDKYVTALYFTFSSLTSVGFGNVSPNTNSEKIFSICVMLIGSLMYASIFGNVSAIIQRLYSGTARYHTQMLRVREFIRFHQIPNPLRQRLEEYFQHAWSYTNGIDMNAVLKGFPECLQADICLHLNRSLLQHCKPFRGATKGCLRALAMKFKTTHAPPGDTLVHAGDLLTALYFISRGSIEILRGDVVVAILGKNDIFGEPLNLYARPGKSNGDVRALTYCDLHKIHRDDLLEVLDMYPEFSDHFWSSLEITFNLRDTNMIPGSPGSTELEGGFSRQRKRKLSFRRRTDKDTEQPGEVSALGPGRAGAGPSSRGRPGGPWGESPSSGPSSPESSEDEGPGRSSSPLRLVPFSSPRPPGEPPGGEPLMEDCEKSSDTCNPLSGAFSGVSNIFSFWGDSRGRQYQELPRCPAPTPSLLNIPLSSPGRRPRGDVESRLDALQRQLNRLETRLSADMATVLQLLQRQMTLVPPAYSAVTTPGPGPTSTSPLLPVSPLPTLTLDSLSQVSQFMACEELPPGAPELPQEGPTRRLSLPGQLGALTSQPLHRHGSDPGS
Protocol: The cardiac potassium channel, hERG, is responsible for the rapid delayed rectifier current (IKr) in the human ventricle. Inhibition of IKr is the most common cause of cardiac action potential prolongation by noncardiac drugs. Increased action potential duration causes prolongation of the QT interval that has been associated with a dangerous ventricular arrhythmia, torsade de pointer.
Compound (II) was initially tested at 1 μM concentration using a standard patch clamp protocol (Cerep ADMET Study 13170). The hERG channel was expressed in a human embryonic kidney (HEK293) cell line that lacks endogenous hERG channels. […] We have retested compound (II) in hERG assay in a range of lower concentrations to estimate IC50 of hERG inhibition more precisely (Qpatch 16 automated whole-cell patch clamp protocol in CHO-K1 cell line stably expressing hERG, Cerep hERG Study 13292). […] This kind of potency in hERG inhibition should not represent a significant clinical problem since the high degree of hERG inhibition would occur only at the compound concentrations above the expected therapeutic levels.

[1] = 2.0E−05 M, HepG2, individual replicates, listed as CRL241
[2] = 5.0E−07 M, HepG2, individual replicates, listed as CRL241

Cc1ccc(F)cc1C[C@H](C)Nc1cc[nH]c(=O)c1-c1nc2cc3c(cc2[nH]1)C(=O)N(CCN1CCCC1)C3 [compound (II)] was tested, and the “Cell Number % Effect (relative to controls), Mean” value (HepG2; 2.0E−05 M, HepG2, 72 hours, % inhibition) was 68%, the “Intracellular Free Calcium % Effect (relative to controls), Mean” value (HepG2; 2.0E−05 M, HepG2) was −2% and the “Cell Number % Effect (relative to controls), 1st/2nd/3rd” value (HepG2; [1]) was 63.8% and 71.0% and 70.5%. The “Intracellular Free Calcium % Effect (relative to controls), 1st/2nd/3rd” value (HepG2; [1]) was −2.2% (2×) and −2.0%, the “Intracellular Free Calcium % Effect (relative to controls), Mean” value (HepG2; 5.0E−06 M, HepG2) was 21% and the “Intracellular Free Calcium % Effect (relative to controls), 1st/2nd/3rd” value (HepG2; 5.0E−06 M, HepG2, individual replicates, listed as CRL241) was 20.9% and 22.1% and 21.4%. For the same compound, the “Intracellular Free Calcium % Effect (relative to controls), Mean” value (HepG2; 5.0E−07 M, HepG2) was 0%, the “Nuclear size % Effect (relative to controls), Mean” value (HepG2; 5.0E−07 M, HepG2, % inhibition) was 9% and the “Intracellular Free Calcium % Effect (relative to controls), 1st/2nd/3rd” value (HepG2; [2]) was 0.9% and −0.5% and −0.3%. The “Nuclear size % Effect (relative to controls), 1st/2nd/3rd” value (HepG2; [2]) was 14.5% and 5.5% and 6.2%, the “% Inhibition of Tail current (mean)” value (hERG; 1.0E−07 M (100 nM)) was 28% and the “% Inhibition of Tail current (mean)” value (hERG; 5.0E−07 M (500 nM)) was 38.5%. For the same compound, the IC50 (hERG; suggested by % inhibition values) was roughly 1000 nM.
